Data published in the supplement of paper PMC4166925.
± gives the standard deviation of the averaged measurements. In all, about 33,000 sequences were measured (“E-score (dimensionless, -0.5 to 0.5)”: median about -0.046, highest 2% from about 0.36 on). This is one part of the list.

System: T1, SpTbr T-box DNA-binding domain (GST fusion)
T1 sequence: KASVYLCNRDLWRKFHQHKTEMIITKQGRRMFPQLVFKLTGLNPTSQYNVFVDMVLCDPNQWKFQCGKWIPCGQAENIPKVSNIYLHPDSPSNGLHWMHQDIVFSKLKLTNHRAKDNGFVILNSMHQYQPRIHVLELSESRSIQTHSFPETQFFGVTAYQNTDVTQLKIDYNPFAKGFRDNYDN
Assay: PBM E-score of 8-mer (E-score (dimensionless, -0.5 to 0.5)); Tbr is Tbrain of the sea star Patiria miniata (Pm) or the sea urchin Strongylocentrotus purpuratus (Sp); higher = stronger binding preference; most listed sequences are background and not binding sites
Details: the construct has about 5 more residues each side
Procedure, shortened: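 GST-fused Tbr T-box DNA-binding domains (the whole T-box plus about five flanking residues) were expressed in BL21 E. coli at 20 °C and purified by glutathione affinity chromatography. Universal Agilent oligonucleotide arrays were made double-stranded by primer extension, incubated with 200 nM protein in PBS (pH 7.5), then scanned and quantified. Every ungapped 8-mer was scored from probe intensities. The Universal PBM Analysis Suite gave each word an enrichment E-score, averaged over duplicate arrays.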

Sequence | PBM E-score of 8-mer
TAATATCA | -0.116 ± 0.1
CTCATCCA | -0.064 ± 0.12
TTGGGAAA | -0.165 ± 0.096
ATCTTACA | -0.114 ± 0.044
CCCGGTAG | -0.0271 ± 0.13
CGGGTTAC | -0.117 ± 0.041
ACTTTGCT | 0.0326 ± 0.0055
TAAGGTAA | -0.107 ± 0.0024
GCTGCAGC | -0.0128 ± 0.073
GCGGATTA | -0.0408 ± 0.023
AACGGATC | 0.0408 ± 0.11
CGATTAGC | -0.0565 ± 0.091
ATCATTCA | -0.0506 ± 0.022
CGCTAGAG | 0.0489 ± 0.072
CTTCAGGC | -0.178 ± 0.019
GAGGTGTA | 0.418 ± 0.014
CAAGGGTG | 0.325 ± 0.017
GGAACGAA | -0.00562 ± 0.061
ACCCCTTA | 0.00928 ± 0.01
GTGTAAGA | 0.249 ± 0.057
CTACCGTC | -0.191 ± 0.04
CTAGAGAG | -0.137 ± 0.031

Sequence | PBM E-score of 8-mer
GCTTCGAA | -0.114 ± 0.09
CTGCGCGA | 0.22 ± 0.044
ATATGTGG | 0.179 ± 0.024
AGACAACT | -0.101 ± 0.041
GCCTTTAA | -0.132 ± 0.054
AATTCGGC | -0.162 ± 0.0099
CGTCATAC | 0.0584 ± 0.068
GAGAGAGA | 0.104 ± 0.023
AACGGTAT | -0.163 ± 0.028
CGCGGATC | 0.0599 ± 0.0062
CGCACAGC | 0.122 ± 0.012
AATGGGTA | -0.0623 ± 0.068
GCCCCTCC | 0.0214 ± 0.032
CCTGCATA | -0.212 ± 0.035
CCCAGTAC | -0.2758 ± 0.00072
AGGACTTA | -0.218 ± 0.018
AGTTCCCC | -0.159 ± 0.037
AAGTAAGG | -0.0193 ± 0.068
TACTCGAA | -0.0428 ± 0.0042
AAAGCATC | -0.14597 ± 8.5e-05
ATGGGGAA | -0.091 ± 0.05
GTGATCAC | 0.366 ± 0.022

Sequence | PBM E-score of 8-mer
AATCGACC | -0.0169 ± 0.018
AAGGGGGC | -0.3603 ± 0.0019
AGTGAAGC | -0.0861 ± 0.0037
GGTAAACA | 0.0291 ± 0.022
AAATCTGG | -0.116 ± 0.028
AGCTGAAC | -0.164 ± 0.018
ATATAATG | -0.127 ± 0.054
ACTGTGGG | -0.0461 ± 0.019
AGATTGCA | 0.0277 ± 0.024
CGTAGATA | -0.201 ± 0.0026
CCGGGCAA | -0.304 ± 0.029
GCGACACA | 0.31 ± 0.0039
CACCAGTC | 0.134 ± 0.069
ATCGTAGG | 0.148 ± 0.11
GGGAGACA | 0.135 ± 0.034
AATGTGCC | 0.19 ± 0.092
GCGTTACC | 0.277 ± 0.0084
CCGCGAGC | 0.124 ± 0.14
GTGTCGCA | 0.367 ± 0.021
CCCGCGTC | -0.138 ± 0.069
GAGTAGCC | -0.158 ± 0.021
TCCTTTAA | -0.012 ± 0.035

Sequence | PBM E-score of 8-mer
CGAGTGAC | 0.201 ± 0.02
CCCTGTCA | 0.112 ± 0.043
GGTTGTTA | 0.213 ± 0.048
CGAACCAG | 0.102 ± 0.015
AATGCAAT | -0.166 ± 0.027
ACCCTGGA | -0.0782 ± 0.025
AGGGCAGA | -0.101 ± 0.0021
TCTACCAA | -0.0863 ± 0.01
ATCGAGCG | -0.122 ± 0.019
GATCTACA | -0.07 ± 0.014
ACAGACCT | 0.0459 ± 0.023
ACGGTTGA | 0.129 ± 0.024
AGTACCCG | -0.148 ± 0.042
AAAATTCA | -0.00819 ± 0.0099
CAAAGGTC | -0.105 ± 0.028
AATCGGAT | -0.0152 ± 0.0036
CCAGTCGA | -0.138 ± 0.083
GGGAACGA | -0.0177 ± 0.016
AGTCTTCG | 0.018 ± 0.021
CAGTGGGA | -0.157 ± 0.0099
CATCAAAC | -0.0179 ± 0.05
GGGTTGGA | 0.00636 ± 0.061

Sequence | PBM E-score of 8-mer
CCCACAAA | -0.0699 ± 0.022
CTTACGGA | -0.115 ± 0.015
CGGAGAAG | -0.01176 ± 1.4e-05
AAATAGTG | 0.0853 ± 0.11
AGTAAGAT | -0.157 ± 0.064
AACTCTCA | 0.0929 ± 0.0053
CTCCTGGC | -0.045 ± 0.044
GACTGGAA | -0.121 ± 0.025
AGGCGCCC | -0.117 ± 0.067
CGACAGTA | 0.141 ± 0.011
AACACACC | 0.326 ± 0.0067
ATATTGCC | -0.119 ± 0.022
ACAAAGTA | -0.0223 ± 0.023
AGTACATC | -0.235 ± 0.068
ACGCCCAA | -0.049 ± 0.13
CGGCTGGA | -0.123 ± 0.0038
AGTAATAC | -0.185 ± 0.0083
AAAGTAAC | 0.175 ± 0.1
ACCTCTAG | 0.125 ± 0.0073
AGTGAATA | 0.0848 ± 0.033
GGCGCAAC | 0.145 ± 0.0099
GTGCACTA | 0.201 ± 0.059
